# Article PMC6919601, “Identification of Plasmodium dipeptidyl aminopeptidase allosteric inhibitors by high throughput screening” (PLoS ONE, 2019)
# Screen size: about 110,000 compounds; about 230 (0.21%) showed an effect of 50% or more. This is one part of the list.
# Target: DPAP1 (Plasmodium falciparum, UniProt Q8IIJ9)
# Test: primary screen, percent inhibition; read by cleavage of a fluorogenic dipeptide substrate; higher = more effect of the substance
# Parameters: species or system P. falciparum D10 trophozoite lysates; single well
# 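Also: 30 min substrate incubation versus DMSO and 10 µM JCP410 controls.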
# DPAP1, sequence (Q8IIJ9 whole entry, looked up): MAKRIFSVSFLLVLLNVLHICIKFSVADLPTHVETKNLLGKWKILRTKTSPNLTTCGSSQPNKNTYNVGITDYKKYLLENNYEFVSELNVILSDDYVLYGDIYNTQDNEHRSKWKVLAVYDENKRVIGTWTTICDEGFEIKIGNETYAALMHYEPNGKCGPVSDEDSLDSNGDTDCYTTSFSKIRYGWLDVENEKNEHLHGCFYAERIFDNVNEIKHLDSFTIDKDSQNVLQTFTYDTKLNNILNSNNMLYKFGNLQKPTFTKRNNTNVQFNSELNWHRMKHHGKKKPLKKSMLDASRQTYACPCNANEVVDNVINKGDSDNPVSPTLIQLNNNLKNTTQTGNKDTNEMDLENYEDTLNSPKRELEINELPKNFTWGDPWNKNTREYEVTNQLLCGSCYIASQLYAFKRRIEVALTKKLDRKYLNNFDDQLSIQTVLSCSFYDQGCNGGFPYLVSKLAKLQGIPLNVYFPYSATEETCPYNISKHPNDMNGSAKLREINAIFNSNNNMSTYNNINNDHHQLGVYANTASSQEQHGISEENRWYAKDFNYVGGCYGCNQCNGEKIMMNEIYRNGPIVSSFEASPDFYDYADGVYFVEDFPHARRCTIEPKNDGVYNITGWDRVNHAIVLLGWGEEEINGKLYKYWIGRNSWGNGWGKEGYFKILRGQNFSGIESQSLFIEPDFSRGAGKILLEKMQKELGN
row,SMILES,% Inhibition @ 10 uM [%]
1,Cc1ccccc1C1CC(=O)NC(SCC(=O)NCc2ccccc2)=C1C#N (centres unmarked),-2.37
2,CC1(C)Cc2ccccc2/C(=C/C(=O)N2CCCCCC2)N1,16.9
3,CN1CCC(N(C)Cc2ccc3c(c2)OCO3)CC1,2.03
4,CCCCC(=O)NC1(C(F)(F)F)C(=O)Nc2c1c(=O)[nH]c(=O)n2Cc1ccco1 (centres unmarked),3.99
5,CCN(CC)CCCNC(=O)c1ccc(OC)cc1,-3.16
6,COCCCNC(=O)c1cc2cc3cc(OC)ccc3nc2o1,0.208
7,COc1ccccc1/N=C1\SC(C(=O)Nc2ccccc2OC)CC(=O)N1C (centres unmarked),0.385
8,COc1ccc(-c2cc(N3CCOCC3)c3cc(OC)c(OC)cc3c2)cc1OC,-2.35
9,COCCNC(=O)Cn1nc(C)n2c(cc3c(OC)cccc32)c1=O,-3.47
10,CCc1nc2ccc(C(=O)NCCCN3CCN(C4CCCCC4)CC3)cc2nc1CC,7.76
11,CN1C2CCC1/C(=C\c1ccccc1F)C(=O)/C2=C/c1ccccc1F,-6.4
12,Cc1cc(O)nc(SCc2cccc3ccccc23)n1,-1.59
13,Cc1nn(CC(=O)NC(C)C)c(=O)c2nn(-c3ccccc3)c(C)c12,1.28
14,C(=C\c1nn2c(Cc3ccccc3)nnc2s1)/c1ccccc1,46.3
15,Cc1ccccc1OCC(O)Cn1c(N2CCNCC2)nc2c1c(=O)n(C)c(=O)n2C (centres unmarked),8.09
16,CCOc1ccccc1C(=O)Nc1ccc(Br)cc1F,-1.61
17,CCOc1cc(Cl)c2noc3c2c1C(=O)c1ccccc1-3,-4.04
18,COCC(C)NC(=O)CSc1nc(-c2ccc(OC)c(OC)c2)cc(C(F)(F)F)n1 (centres unmarked),40.7
19,O=C(Nc1ccc(NC(=O)C(F)(F)F)cc1)c1ccco1,-1.07
20,CCOc1ccccc1N1CCN(Cc2ccc(F)cc2F)CC1,-9.66
21,CCCCNC(=O)c1cc2c(=O)oc3ccccc3c2s1,5.4
22,CC(C)(C)C1CCc2c(sc3nnn(Cc4ccccc4)c(=O)c23)C1 (centres unmarked),4

row,SMILES,% Inhibition @ 10 uM [%]
1,C=CCNC(=O)COc1c(C)cc(Br)cc1C,-4.97
2,Cc1c(C(=O)O)sc2nc3n(c(=O)c12)CCC(C)CC3 (centres unmarked),-1.7
3,Cc1ccc(Cl)c(OCC(O)Cn2cnc3ccccc32)c1 (centres unmarked),1.67
4,N=C1/C(=C\c2cccn2Cc2ccccc2F)C(=O)N=C2SC(N3CCCC3)=NN12,1.72
5,CCCC(=O)Nc1nnc(-c2ccccc2Cl)s1,8.74
6,COc1ccc(N(CC(=O)Nc2ccc(C)cc2)S(=O)(=O)c2ccccc2)cc1OC,3.17
7,CC(NC(=O)Cn1ncc2c3ccccc3n(C)c2c1=O)C12CC3CC(CC(C3)C1)C2 (centres unmarked),-0.23
8,COc1ccc(C2C(C#N)=C(N)Oc3c2ccc2ccccc32)cc1Br (centres unmarked),3.27
9,CN1C(=O)c2ccccc2C1(O)c1ccccc1 (centres unmarked),-3.94
10,Cc1ccccc1-c1nc(CS(=O)CC(=O)N2CCOCC2)c(C)o1 (centres unmarked),-1.05
11,COc1ccc(S(=O)(=O)N(C)C2CCCCC2)cc1,2.99
12,CC1=NC(=S)NC(c2ccc(N(C)C)cc2)/C1=C(/O)OCC(C)C (centres unmarked),-2.03
13,Cc1cccc(/N=c2\scc(-c3ccccc3)n2CCO)c1,-0.67
14,CC1C(=O)CC(c2ccccc2)N(C)C1c1ccccc1 (centres unmarked),-3.03
15,Cc1cc(C)n2nc(Cc3ccccc3)nc2n1,1
16,COc1ccccc1NC(=O)C1CC=CCC1C(=O)NC1CCCCC1 (centres unmarked),1.42
17,N#Cc1c(/N=C/c2cccn2-c2ccc(S(N)(=O)=O)cc2)sc2c1CCCC2,0.47
18,O=C(NCCc1ccccc1)C1c2ccccc2C(=O)N(C2CCCC2)C1c1cccs1 (centres unmarked),2.74
19,CCOc1c(CNCc2ccncc2)cccc1OC,1.72
20,Cc1ccc(OCCCCCN2CCCCC2)c(C)c1,0.135
21,CC(C)(C)c1ccc(Sc2cc3c(c(N4CCCCC4)c2)C(=O)c2ccccc2C3=O)cc1,-2.91
22,COCCCNC(=O)CSc1nnc(C)c2c(C)n(-c3ccccc3)nc12,2.58

row,SMILES,% Inhibition @ 10 uM [%]
1,CCOc1cc(=O)oc2ccccc12,-5.26
2,COC(=O)c1cc(C)nc2c1c(C)nn2-c1ccccc1Cl,-2.83
3,Cc1ccc(CNC(=O)CCc2nnc3ccc(N4CCC(C)CC4)nn23)cc1,-0.544
4,CCN1CCCC1CNC(=O)c1cc2c(O)nc3ccc(C)cc3c2s1 (centres unmarked),2.85
5,COc1ccc(CCNS(=O)(=O)c2c(C)nc3scc(C)n3c2=O)cc1OC,0.128
6,C=CCOc1ccc(C(=O)C2=C(O)C(=O)N(CCN(C)C)C2c2ccccc2F)cc1C (centres unmarked),4.74
7,COc1ccc(Br)cc1C1CC(=O)NC(C)=C1C(=O)OC(C)C (centres unmarked),-3.87
8,CCN(CC)CCCNC(=O)c1[nH]c(C)c(C(C)=O)c1C,-4.38
9,Cc1ccc(CCNC(=O)Cc2noc3ccc(C)cc23)cc1,-0.788
10,CC(=O)c1c(O)c2c3n(c1=O)-c1ccccc1C3(C)CCC2 (centres unmarked),-4.76
11,Cc1ccc(S(=O)(=O)N(CC(=O)N2CCN(C)CC2)c2ccccc2C)cc1,0.235
12,CC1(C)CC(=O)C2=C(C1)OC(N)=C(C#N)C2c1ccccc1OCc1ccccc1Cl (centres unmarked),-0.736
13,Cc1c(CC(=O)N2CCCC2)c(=O)oc2c(C)c(O)ccc12,2.54
14,COc1ccc(C2OC(=O)CC2C(=O)NC(C)C)cc1OC (centres unmarked),0.238
15,O=C(O)CCC(=O)Nc1ccc(S(=O)(=O)Nc2ccc(F)cc2)cc1,1.37
16,COCCNC(=O)CCCCn1c(=S)[nH]c2c([nH]c3ccc(OC)cc32)c1=O,-3.95
17,Cn1nccc1C(=O)Nc1ccn(C23CC4CC(CC(C4)C2)C3)n1,-2.09
18,CCN(CC)C(=O)C1CCCN(Cc2ccc(C(F)(F)F)cc2)C1 (centres unmarked),-2.7
19,Cc1ccc(CSCc2ccc(C(=O)NCc3cccs3)o2)cc1,2.18
20,C=CCOC(=O)c1sc(N2C(=O)c3oc4ccccc4c(=O)c3C2c2ccc(O)cc2)nc1C (centres unmarked),7.65
21,O=C(/C=C/Nc1ccccn1)c1ccc(Cl)s1,-4.03
